This is an account of results in patent US20200060273A1, “FUNGICIDAL COMPOSITIONS” (Novus International, Inc., priority 2018, published 2020).

For this experiment, the system named is Podosphaera xanthii. As to the kind of experiment: greenhouse powdery mildew on cucurbit (summer squash) assay. As for the experimental part:
Gentry variety summer squash plants in 1 gallon pots were placed 12 inches apart and inoculated with powdery mildew of cucurbits (Podosphaera xanthii).
The plants were sprayed to run-off with the solution of the appropriate concentration. The fungicide concentration of the mix was the same as a field rate in which 15,000 plants per acre were grown. One-hundred gallons per acre of treatment applications were sprayed using a Flo-Master compressed CO2 sprayer with boom incorporating a single nozzle. Treatments included azoxystrobin at 0.18 lb ai/a (0.021% v/v) with and without HMTBA (three rates: 0.107, 0.536 and 1.073% v/v). An untreated check was included for reference. Each treatment arm received five applications (A, B, C, D, E), with approximately one week between each application.
Powdery mildew severity was rated on 5 plants per plot on a 0-10 scale (0 is no pest damage and 10 is a severe infestation) for the whole plant for each assessments. Pest incidence (percent of plants with signs of disease), the area under the disease progress curve (AUDPC) and percent disease control (Abbott's formula) calculations were performed in ARM9 software (Gylling Data Management). Bartlett's test for homogeneity of variances was used to determine the need for data transformations. Letters in tables represent means separation significant and 0.05.
AUDPC calculates the average disease intensity between each pair of adjacent time points. It is calculated by determining the average distance in rise of disease intensity for each evaluation date and adding them together by treatment. The equation for calculation is as follows:
where y=severity, t=time, N=average disease intensity between two adjacent time points. Percent disease control expresses the severity of fungal disease infection in treated plots, compared to plants in the untreated check. It was calculated using the Abbott formula. The equation for calculation is as follows: […]
Powdery mildew severity was rated on five plants/plot on 3 days after Application A (3DA-A), 1 day after Application B (1 DA-B), 6 days after Application B (6 DA-B), 5 days after Application C (5 DA-C), and 1 day after Application E (1 DA-E).

Where [1] appears, read: Azoxystrobin 0.18 lb ai/a (0.021% v/v), 1 DA-B.
[2] abbreviates: Azoxystrobin 0.18 lb ai/a (0.021% v/v), 1 DA-E.
The mark [3] stands for this setting: Azoxystrobin 0.18 lb ai/a (0.021% v/v), 3 DA-A.
[4] abbreviates: Azoxystrobin 0.18 lb ai/a (0.021% v/v), 5 DA-C.
[5] abbreviates: Azoxystrobin 0.18 lb ai/a (0.021% v/v), 6 DA-B.

In the case of `CSCCC(O)C(=O)O` (stereo not shown) [HMTBA, 2-hydroxy-4(methylthio)butanoic acid], for the setting “HMTBA at 0.536% v/v (with azoxystrobin 0.021% v/v), all assessments”, the “pest severity ratings compared with other treatments” value is “statistically lower pest severity ratings for all assessments compared to treated and untreated plants”.
Turning to `CO/C=C(/C(=O)OC)c1ccccc1Oc1cc(Oc2ccccc2C#N)ncn1` [Azoxystrobin, azoxystrobin], the “Average Pest Severity Score (0-10)” value is 1.10 b under setting [1]; 2.20 b under setting [2]; 0.70 ab under setting [3]; 1.80 bc under setting [4]; 1.30 b under setting [5]. Further, the “Disease Incidence (%)” value came to 45.0% b under setting [1]; 70.0% b under setting [2]; 30.0% ab under setting [3]; 50.0% c under setting [4]; 50.0% bc under setting [5]. Also, where the note is “Azoxystrobin 0.18 lb ai/a (0.021% v/v), Abbott's formula vs untreated check”, the “PM AUDPC % Control” value stood at 43.20% b. For the same compound, the “Powdery Mildew Area Under the Disease Progress Curve (AUDPC)” value (Azoxystrobin 0.18 lb ai/a (0.021% v/v), five assessments) stood at 36.00 b.
